Data on 61 compounds can be found in PubChem BioAssay AID1159614 (National Center for Advancing Translational Sciences (NCATS), 2016).

The campaign covered roughly 45,000 compounds. About 65 (0.1%) were called active. Calls come from the whole dose curve; as a rule, active = well fitted activation curve with a large enough effect; inconclusive = small, poorly fitted or top-dose-only effect; inactive = no such curve, though single readings can be large or run the other way. The list shows a part of the results.

For the assay, the target named is Galactocerebrosidase (Homo sapiens) (UniProt P54803). The assay can be described thus: A Novel Cell-Based Assay to Identify Small Molecules for B -Galactocerebrosidase. Note: 0% is about no effect; nearly all actives have a fitted effect of over 65% in size. The settings on record: 145M-Twi-hGALC-G270D cells (Twitcher mouse brain line with human GALC G270D), HMU-beta-Gal fluorescence, 48 h; series mostly up to 57.5 µM; activation: at the top concentration. Put shortly: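 Fluorogenic HMU-b-Gal hydrolysis (0.1 mM final, pH 5.2 citrate-phosphate with 1 mg/mL sodium taurocholate; carbonate stop buffer) measures mutant GALC activity after compound treatment of live 145M-Twi Twitcher brain cells stably carrying human GALC-G270D, with wild-type GALC line alongside; activation sought.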
UniProt P54803, sequence (P54803 whole entry, looked up): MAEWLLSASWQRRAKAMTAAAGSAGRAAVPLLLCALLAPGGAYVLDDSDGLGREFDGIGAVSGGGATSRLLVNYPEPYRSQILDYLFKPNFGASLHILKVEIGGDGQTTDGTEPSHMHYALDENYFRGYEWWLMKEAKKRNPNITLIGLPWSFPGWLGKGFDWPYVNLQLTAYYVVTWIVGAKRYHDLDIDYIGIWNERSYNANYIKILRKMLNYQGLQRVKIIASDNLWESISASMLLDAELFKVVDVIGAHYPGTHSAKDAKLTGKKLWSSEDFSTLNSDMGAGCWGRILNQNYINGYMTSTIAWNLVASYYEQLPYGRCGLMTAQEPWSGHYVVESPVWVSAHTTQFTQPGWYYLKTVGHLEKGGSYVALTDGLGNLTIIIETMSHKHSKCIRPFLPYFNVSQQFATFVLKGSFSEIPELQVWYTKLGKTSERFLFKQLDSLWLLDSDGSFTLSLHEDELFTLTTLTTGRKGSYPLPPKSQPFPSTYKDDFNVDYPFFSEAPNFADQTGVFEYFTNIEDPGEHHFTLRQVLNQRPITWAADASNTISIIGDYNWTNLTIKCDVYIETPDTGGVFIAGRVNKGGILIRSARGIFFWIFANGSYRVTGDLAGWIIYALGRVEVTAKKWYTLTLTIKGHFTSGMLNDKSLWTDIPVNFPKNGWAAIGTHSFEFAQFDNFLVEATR
Consider `O=S(=O)(NCCc1csc2nc(-c3ccc(F)cc3)nn12)c1ccc2c(c1)OCCO2`, for which the “activation” value is inactive: -38.4%.

In the case of `CC(=O)Nc1ccc(NC(=O)CC(C)n2ccc(C)n2)cc1` (stereo unspecified), the “activation” value is inactive: -22.2%.

`Cc1cc(C)c(-c2csc(-c3cc4ccccc4oc3=O)n2)cc1C`: the “activation” value was inactive: -41.6%. As for `CCCN1CCN(CCNC(=O)Nc2cc(Cl)c(OC)cc2OC)CC1`, the “activation” value was inactive: -2.05%. On to `COc1cccc(CNC(=O)C2CCCN(S(=O)(=O)c3ccc4c(ccn4C)c3)C2)c1OC` (stereo unspecified), for which the “activation” value is inactive: -11.3%.

For the compound `Cc1cc(C(=O)Nc2cccc(C(F)(F)F)c2)c2c(C)nn(-c3cccc(F)c3)c2n1`, the “activation” value is inactive: -5.43%. Under `Cc1nn2c3c(cnc2c1-c1ccc(F)cc1)C(=O)CC(c1ccccc1)C3` (stereo unspecified) stands inactive: -10%; under `O=C(Cn1c(=O)n(CCCS(=O)(=O)C2CCCCC2)c(=O)c2ccccc21)Nc1ccccc1F`, inactive: -17.8%; under `O=C(NCCc1ccccc1)c1c2c(nc3ccccc13)C(=O)N(C1CCCCC1)C2`, inactive: -14.4%. For the compound `Cc1oc(-c2cccc(Cl)c2)nc1CN1CCC(C(=O)NCc2ccc(F)cc2)CC1`, the “activation” value was inactive: 5.05%. As to `O=C(Nc1nnc(N2CCCC2)s1)Nc1cc(F)ccc1F`, the “activation” value is inactive: -20.4%.

Consider `CN1CCC(N(Cc2cccs2)c2ccccc2)CC1`, for which the “activation” value was inactive: 12.5%.

Consider `Cc1ccccc1Cn1c(=O)n(CCCCC(=O)NCc2ccc3c(c2)OCO3)c(=O)c2ccccc21`, for which the “activation” value was inactive: -5.65%. In the case of `CCOC(=O)c1c(-c2ccccc2)oc2ccc(OCc3ccc(C)cc3)cc12`, the “activation” value was inactive: -0.835%. With `Cc1cc2c(n1-c1ccc(C(=O)NCc3cccc(Br)c3)cc1)CCC(C)C2` (stereo unspecified), the “activation” value is inactive: -20.2%. Under `Cc1cccc(-c2nc3c4ccccc4n(CC(=O)Nc4cc(F)ccc4F)c(=O)n3n2)c1` stands inactive: 2.23%; under `Cc1ccc(N2C(=O)CSC23C(=O)Nc2ccccc23)cc1F` (stereo unspecified), inactive: -12.7%; under `CC(=O)c1cccc(NC(=O)C2CCN(c3nnc(-n4cccc4)s3)CC2)c1`, inactive: -22.4%. As for `O=C(COCCOCCOCC(=O)Nc1c(I)cc(I)c(C(=O)O)c1I)Nc1c(I)cc(I)c(C(=O)O)c1I`, the “activation” value is inactive: -7.39%. `Nc1ccc(N)c([N+](=O)[O-])c1`: the “activation” value is inactive: -8.89% [at 114 µM]. For the compound `C=CCOc1cc(Cl)ccc1C(=O)NCCN(CC)CC`, the “activation” value was inactive: -14.1%. As to `CCCN1C(=O)c2[nH]nc(-c3ccc(F)cc3)c2C1c1ccc(O)c(OCC)c1` (stereo unspecified), the “activation” value was inactive: -8.16%. As for `COc1cccc(NC(=O)Cc2ccc(NC(=O)N3CCCCc4ccccc43)cc2)c1`, the “activation” value was inactive: -2.26%. Then `COc1ccc(C(=O)Cn2c(=O)n3nc(CCn4nc(C)cc4C)nc3c3cc(OC)c(OC)cc32)cc1`, with inactive: -10.3%; and `COc1ccc(S(=O)(=O)Nc2c(C)n(C)n(-c3ccccc3)c2=O)cc1Br`, with inactive: -15.5%; and `CCOc1ccc(C(=O)Nc2c(C)nc(Nc3ccccc3)nc2Nc2ccccc2)cc1OCC`, with inactive: -8%. Under `O=C(c1ccc(Br)cc1)N1CCC(c2nc3ccccc3s2)CC1` stands inactive: -16.7%; under `CCOC(=O)c1[nH]c(C)c(CCC(=O)Nc2ccc(C)cc2Cl)c1C`, inactive: -17.3%; under `CCOc1ccc(CNC(=O)C(C)n2ncn3cccc3c2=O)cc1` (stereo unspecified), inactive: -10%. Then `CCOc1ccccc1CNC(=O)C1=C(C)C(=O)OC12CCN(C(C)=O)CC2`, with inactive: -11%; and `CC(C)Nc1cc(N2CCN(C3CCCCC3)CC2)c2noc3c2c1C(=O)c1ccccc1-3`, with inactive: -12.9%; and `COc1ccccc1N1CCN(C(=O)CSc2nc(C)cc(=O)[nH]2)CC1`, with inactive: 1.93%.

Consider `COc1ccc(CCNc2nc(-c3ccccc3OC)cc(C(F)(F)F)n2)cc1OC`, for which the “activation” value is inactive: 12.7%. With `CCOC(=O)c1sc(NC(=O)c2nc3nc(C)cc(C(F)F)n3n2)c(C(=O)OC(C)C)c1C`, the “activation” value is inactive: 4%. For `COc1ccccc1C(=O)Nc1ccccc1C(=O)OCc1cc(=O)n2ccsc2n1`, the “activation” value is inactive: -8.55%. For the compound `CCCOc1ccc(CNC(=O)CCCN2C(=O)CSc3c2c(C)nn3-c2ccccc2)cc1`, the “activation” value was inactive: -9.42%. `Cc1ccc(-c2nc(CCNC(=O)C(=O)Nc3ccc(C)c(Cl)c3)cs2)cc1`: the “activation” value is inactive: -9.38%.

Regarding `CC(C)(C)NC(=O)[C@@H]1CN(Cc2cccnc2)CCN1C[C@@H](O)C[C@@H](Cc1ccccc1)C(=O)N[C@H]1c2ccccc2C[C@H]1O`, the “activation” value is inactive: -12.4%.

In the case of `CCCN(CCC)C(=O)Cn1c(SCc2cccc(F)c2)nc2cccnc21`, the “activation” value is inactive: -7.11%. As for `N#Cc1cccc(NC(=O)C2CCN(S(=O)(=O)c3ccc4c(c3)CCCN4C(=O)C3CCC3)CC2)c1`, the “activation” value was inactive: -20.6%. On to `CCOc1ccccc1NC(=O)CSc1nc2cc(OC)c(OC)cc2c2nc(CCn3c(C)nc4ccccc43)nn12`, for which the “activation” value was inactive: -10.3%. In the case of `Cc1ccc(CNC(=O)c2cc3c(=O)n4cccc(C)c4nc3s2)cc1`, the “activation” value was inactive: -17%. For the compound `Cc1nc(-c2ccc(F)cc2)sc1CCNC(=O)c1ccccc1C(F)(F)F`, the “activation” value is inactive: -29%. Under `Cc1ccc2oc(C(=O)NCC(c3ccc(Cl)cc3)N3CCOCC3)c(C)c2c1` (stereo unspecified) stands inactive: -17.4%; under `CC1=C(C(=O)Nc2ccccc2C)C(c2sccc2C)n2ncnc2N1` (stereo unspecified), inactive: -5.13%; under `Cc1cccc(CSc2ncc(Cl)c(C(=O)Nc3nnc(C)s3)n2)c1`, inactive: 13.5%.

Regarding `Cc1ccc(S(N)(=O)=O)cc1NC(=O)c1c(-c2c(Cl)cccc2Cl)noc1C`, the “activation” value is inactive: -6.7%. In the case of `COc1ccccc1NC(=O)CN1C(=O)C(C)(C)c2ccccc21`, the “activation” value was inactive: -23.3%.

Regarding `Cc1ccc(CNC(=O)CN2C(=O)C3CCCCN3c3ccc(C(=O)N(C)C)cc32)cc1` (stereo unspecified), the “activation” value is inactive: -10.6%. Consider `CCc1nnc2c(NCc3ccccc3)nc3ccccc3n12`, for which the “activation” value is inactive: -11.6%. Then `Cc1ccc(C(=O)N2CCN(c3ccccc3)CC2)cc1NC(=O)c1nsc2ccccc12`, with inactive: -18.1%.

On to `N#Cc1c(C(F)(F)F)cc(-c2cccs2)nc1SCC(=O)Nc1cccc(Br)c1`, for which the “activation” value is inactive: -27.2%. With `Cc1ccc(-c2nnc(Nc3ccc(F)cc3)c3ccccc23)cc1S(=O)(=O)NC(C)C`, the “activation” value was inactive: -17.9%.

In the case of `CCOc1ccc(-c2cc(NC(=O)Nc3ccccc3Cl)c(C(=O)OC)s2)cc1`, the “activation” value is inactive: -13.6%. Take `O=C(NCCCN1CCN(c2ccccc2F)CC1)c1ccc2nc(Cc3ccccc3)oc2c1`: the “activation” value is inactive: -22.9%. With `CCOC(=O)COc1ccc(CC)cc1C(=O)c1ccn2nc(-c3ccc(C)cc3)cc2n1`, the “activation” value is inactive: 7.88%. In the case of `CCN(CC)CCNC(=O)CN1C(=O)CSc2ccc(S(=O)(=O)N3CCOCC3)cc21`, the “activation” value was inactive: -6.06%. Consider `Cc1ccc(/C=C/c2onc(C)c2S(=O)(=O)N2CCC(C(=O)Nc3cccc(C#N)c3)CC2)cc1`, for which the “activation” value was inactive: -23.8%. Regarding `Cc1ccccc1CSc1nc2c([nH]c3ccccc32)c(=O)n1-c1ccccc1`, the “activation” value is inactive: -0.176%. `Cn1c(-c2cccc(Br)c2)cnc1NCc1cccc(F)c1`: the “activation” value is inactive: -6.96%. In the case of `Cc1cccc(-c2nnc(SCC(=O)Nc3ccc(C)c(C)c3)o2)c1`, the “activation” value was inactive: -18.5%.
